PubChem BioAssay (NCI)
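Five compound concentrations were applied to cells in 96-well plates for 48 hours; endpoints were derived by simple linear interpolation of the resulting dose-response curve. Abbreviation: GI50, concentration required for 50% inhibition of growth.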 Certain results were filed several times, with different values. This list holds those alone. There may be further records. For some of these results: Records of one sample usually come from different ranges of test concentrations, not given here; a value can be the end of its range. Marks in square brackets tell the records apart. The letters are not those of the source and start again with each entry. For some of these results: Results that share an entry are repeated measurements in other runs, samples, wells, individuals or studies.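 TGI denotes the concentration required for complete inhibition of growth.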

What was measured:
Test in all cases: growth of human tumour cells (NCI), 48 h
[1] = tested on: A498 renal
[2] = tested on: HOP-92 NSCLC
[3] = tested on: SR leukemia
[4] = tested on: CAKI-1 renal
[5] = tested on: HCC-2998 colon
[6] = tested on: SNB-78 CNS
[7] = tested on: M19-MEL melanoma
[8] = tested on: KM20L2 colon
[9] = tested on: LXFL 529 NSCLC
[10] = tested on: SNB-19 CNS
[11] = tested on: CCRF-CEM leukemia
[12] = tested on: SF-539 CNS
[13] = tested on: DLD-1 colon
[14] = tested on: NCI-H226 lung
[15] = tested on: DMS 273 small cell lung
[16] = tested on: MOLT-4 leukemia
[17] = tested on: K-562 leukemia
[18] = tested on: SN12C renal
[19] = tested on: RXF-631 renal
[20] = tested on: SW-620 colon
[21] = tested on: A549 NSCLC
[22] = tested on: HL-60(TB) leukemia
[23] = tested on: UO-31 renal
[24] = tested on: UACC-257 melanoma
[25] = tested on: IGROV1 ovarian
[26] = tested on: T-47D breast
[27] = tested on: DU-145 prostate
[28] = tested on: MDA-MB-231 breast
[29] = tested on: M14 melanoma
[30] = tested on: LOX IMVI melanoma
[31] = tested on: OVCAR-5 ovarian
[32] = tested on: BT-549 breast
[33] = tested on: SK-OV-3 ovarian

SMILES: Cc1nc(Nc2n[nH]c3c2CN(C(=O)N[C@H](CN(C)C)c2ccccc2)C3(C)C)c2sccc2n1
- GI50 [1]: 112 nM [sample A, mean of 2 tests] and 1.28 µM [sample B, mean of 2 tests]
- GI50 [2]: 166 nM [sample A, mean of 2 tests] and < 10 nM [sample B, mean of 2 tests]
- TGI [3]: 2.2 µM [sample A, 1 test] and > 46.4 µM [sample B, mean of 2 tests]
- GI50 [4]: 111 nM [sample A, mean of 2 tests] and 1.69 µM [sample B, mean of 2 tests]

SMILES: CCN(CC)CCNC(=O)c1c(C)[nH]c(/C=C2\C(=O)Nc3ccc(F)cc32)c1C
- GI50 [5]: 2.97 µM [sample A, 1 test] and 684 nM [sample A, mean of 4 tests] and > 10 µM [sample B, 1 test]

SMILES: CC1(C)CC[C@H](C2=CC(=O)c3c(O)ccc(O)c3C2=O)O1
- TGI [6]: 46.2 µM [sample A, mean of 2 tests] and 2.87 µM, 4.91 µM [sample B, 1 test]
- GI50 [7]: 2.47 µM [sample A, mean of 2 tests] and 200 nM [sample B, 1 test] and 177 nM [sample B, mean of 2 tests]
- TGI [7]: 8.8 µM [sample A, mean of 2 tests] and 408 nM [sample B, 1 test] and 363 nM [sample B, mean of 2 tests]
- GI50 [8]: 9.51 µM [sample A, mean of 2 tests] and 2.31 µM [sample B, 1 test] and 770 nM [sample B, mean of 2 tests]
- TGI [8]: 28.7 µM [sample A, mean of 2 tests] and 5.77 µM [sample B, 1 test] and 2.03 µM [sample B, mean of 2 tests]
- GI50 [9]: 1.56 µM [sample A, mean of 2 tests] and 389 nM [sample B, 1 test] and 90.3 nM [sample B, mean of 2 tests]
- TGI [9]: 3.04 µM [sample A, mean of 2 tests] and 1.49 µM [sample B, 1 test] and 230 nM [sample B, mean of 2 tests]
- TGI [10]: 29.5 µM [sample A, mean of 3 tests] and 2.19 µM [sample B, mean of 3 tests]
- TGI [11]: 13.5 µM [sample A, mean of 3 tests] and 648 nM [sample B, mean of 3 tests]
- TGI [12]: 9.73 µM [sample A, mean of 4 tests] and 3.41 µM [sample B, 1 test] and 956 nM [sample B, mean of 2 tests]
- GI50 [13]: 1.9 µM [sample A, mean of 2 tests] and 176 nM [sample B, 1 test] and 86.1 nM [sample B, mean of 2 tests]
- TGI [13]: 4.1 µM [sample A, mean of 2 tests] and 373 nM [sample B, 1 test] and 250 nM [sample B, mean of 2 tests]
- TGI [14]: 17.4 µM [sample A, mean of 4 tests] and 3.54 µM [sample B, 1 test] and 1.21 µM [sample B, mean of 2 tests]
- TGI [15]: 20 µM [sample A, mean of 2 tests] and 2.89 µM [sample B, 1 test] and 1.5 µM [sample B, mean of 2 tests]
- TGI [5]: 22.4 µM [sample A, mean of 4 tests] and 3.55 µM [sample B, 1 test] and 1.42 µM [sample B, mean of 3 tests]
- TGI [16]: > 22.1 µM [sample A, mean of 2 tests] and 406 nM [sample B, 1 test]
- GI50 [17]: 3.74 µM [sample A, mean of 3 tests] and 172 nM [sample B, 1 test] and 270 nM [sample B, mean of 2 tests]
- TGI [17]: > 44.4 µM [sample A, mean of 3 tests] and 415 nM [sample B, 1 test]
- TGI [18]: 7.31 µM [sample A, mean of 3 tests] and 2.9 µM [sample B, 1 test] and 706 nM [sample B, mean of 3 tests]

SMILES: CC[C@H]1CN2CCc3cc(OC)c(OC)cc3[C@@H]2C[C@@H]1C[C@H]1NCCc2cc(OC)c(OC)cc21
- TGI [9]: 133 nM and 2.71 µM
- TGI [19]: 164 nM and 1.79 µM
- TGI [16]: 376 nM and 14.3 nM
- TGI [20]: 118 nM and 1.39 µM
- TGI [21]: 97 nM and 1.16 µM
- TGI [22]: 44.6 nM and 18.9 µM

SMILES: CCC1=C[C@@H]2CN(C1)Cc1c([nH]c3ccccc13)[C@@](C(=O)OC)(c1cc3c(cc1OC)N(C)[C@H]1[C@@](O)(C(=O)OC)[C@H](OC(C)=O)[C@]4(CC)[C@@H]5C[C@@H]5CN5CC[C@]31[C@@H]54)C2
- GI50 [23]: 35.1 nM and 1.21 µM
- GI50 [24]: < 5 nM and 232 nM
- GI50 [10]: 5.35 nM and 4.7 µM
- TGI [11]: 5.58 µM and > 100 µM
- GI50 [25]: < 5 nM and 104 nM
- GI50 [26]: < 5 nM and 744 nM
- TGI [27]: < 5 nM and 334 nM
- TGI [28]: 72.9 nM and 1.79 µM
- TGI [29]: 18.8 nM and 3.08 µM
- TGI [5]: 34.2 nM and 7.24 µM
- TGI [3]: 663 nM and 47.1 µM
- TGI [16]: 5.04 µM and > 100 µM
- TGI [17]: 1.32 µM and 13.9 µM
- TGI [30]: 71.8 nM and 12.5 µM
- GI50 [31]: < 5 nM and 397 nM
- GI50 [32]: 42 nM and 981 nM
- GI50 [18]: < 5 nM and 56.1 nM
- TGI [22]: < 5 nM and 11.5 µM
- TGI [33]: 63.8 nM and 6.58 µM
